# Some of the results follow.
# Target: no compound (DMSO)
# Assay: log2 fold change of degron read counts, EGFP-low vs EGFP+ sorted cells; higher = lower degron-EGFP level without compound (poor expression or instability)
# Details: compound: DMSO control; 18 h
# 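Further: jurkat cells carrying a lentiviral library of mutant zinc finger degrons fused to EGFP plus mCherry, mCherry+ cells FACS sorted, degron abundance counted by next-generation sequencing.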
row,Sequence,log2 fold change of degron read counts
1,FSCEICGRCFTQKGNLLRHIKL,-1.74
2,FTCSVCGHEFTQKGNLLRHIKL,-1.08
3,LNCNQCGFNCTQKGNLLRHIKL,0.315
4,FVCNQCGHRFTQKGNLLRHIKL,-0.096
5,FYCEQCGASFTQKGNLLRHIKL,-2.13
6,FWCEICGAHFTQKGNLLRHIKL,-0.423
7,FGCNICGANFTQKGNLLRHIKL,-0.211
8,LICEICGFQCTQKGNLLRHIKL,-0.84
9,FHCSVCGHHFTQKGNLLRHIKL,0.0243
10,FKCSVCGHIFTQKGNLLRHIKL,-0.452
11,FACEICGRRFTQKGNLLRHIKL,-2.04
12,FGCEICGHNFTQKGNLLRHIKL,-0.551
13,LFCEICGFFCTQKGNLLRHIKL,1.98
14,FACPICGHNFTQKGNLLRHIKL,-0.501
15,FQCPICGHDFTQKGNLLRHIKL,-0.49
16,FHCPICGHKFTQKGNLLRHIKL,-0.455
17,FYCEVCGACFTQKGNLLRHIKL,-0.63
18,FWCNQCGHPFTQKGNLLRHIKL,1.94
19,FFCEICGAYFTQKGNLLRHIKL,-0.15
20,LKCEICGFMCTQKGNLLRHIKL,-0.0783
21,LTCEICGFGCTQKGNLLRHIKL,-0.113
22,FTCEQCGAAFTQKGNLLRHIKL,-1.64
23,FMCEICGAEFTQKGNLLRHIKL,-1.79
24,LHCPICGFQCTQKGNLLRHIKL,0.366
25,FCCDQCGADFTQKGNLLRHIKL,-2.2

row,Sequence,log2 fold change of degron read counts
1,FKCEICGAEFTQKGNLLRHIKL,-3.25
2,FHCEICGAQFTQKGNLLRHIKL,-1.55
3,FRCEVCGATFTQKGNLLRHIKL,-1.53
4,FDCPICGHRFTQKGNLLRHIKL,-0.156
5,FNCPQCGAYFTQKGNLLRHIKL,0.104
6,FICEVCGAYFTQKGNLLRHIKL,-0.834
7,FDCPICGRIFTQKGNLLRHIKL,-0.169
8,FRCNVCGAFFTQKGNLLRHIKL,0.521
9,FVCEICGHGFTQKGNLLRHIKL,-1.67
10,FTCNQCGRYFTQKGNLLRHIKL,-0.0487
11,FVCEICGAIFTQKGNLLRHIKL,-0.107
12,FYCEQCGAHFTQKGNLLRHIKL,-0.524
13,FDCPQCGAKFTQKGNLLRHIKL,-2.69
14,FQCNICGAIFTQKGNLLRHIKL,-0.00915
15,LQCEICGFDCTQKGNLLRHIKL,-0.5
16,FICNICGAYFTQKGNLLRHIKL,0.392
17,FICEICGHEFTQKGNLLRHIKL,-2.52
18,FNCDVCGATFTQKGNLLRHIKL,-2.06
19,FTCNQCGAQFTQKGNLLRHIKL,-1.71
20,FACPICGHTFTQKGNLLRHIKL,-0.361
21,FICNQCGHAFTQKGNLLRHIKL,-1.82
22,LWCPICGFQCTQKGNLLRHIKL,1.95
23,FGCNICGAQFTQKGNLLRHIKL,-0.35
24,FQCEVCGAFFTQKGNLLRHIKL,-0.527
25,LLCNQCGFRCTQKGNLLRHIKL,0.994

# Reference: the supplement of paper PMC12645437, “Orthogonal IMiD-Degron Pairs Induce Selective Protein Degradation in Cells” (ACS Chemical Biology, 2025)
